Reference: the antibiotic and cytotoxicity screens of Wong et al. (2023)
The other results are listed elsewhere or left out.

Test system: HepG2
Test: cytotoxicity call (relative viability < 0.9)
Settings: 10 µM

Row | Structure (SMILES) | cytotoxicity call
1 | COc1ccc(S(=O)(=O)N[C@@H]2CC[C@H](CC(=O)N3CCN(c4ccccc4)CC3)O[C@H]2CO)cc1 | inactive
2 | C[C@@H]1CN([C@@H](C)CO)C(=O)c2cccc(NC(=O)C3CCCCC3)c2O[C@H]1CN(C)Cc1ccc(Oc2ccccc2)cc1 | inactive
3 | CN1C(=O)c2cc(NC(=O)c3cnccn3)ccc2OC[C@@H]2O[C@H](CC(=O)NCC3CCCCC3)CC[C@H]21 | inactive
4 | C[C@@H]1CN([C@H](C)CO)C(=O)c2cc(NS(=O)(=O)c3ccc(Cl)cc3)ccc2O[C@H]1CN(C)Cc1ccc(Oc2ccccc2)cc1 | active
5 | C[C@H](NCc1ccc(OCC(N)=O)cc1)C(N)=O | inactive
6 | Cc1noc(C)c1S(=O)(=O)Nc1ccc2c(c1)C(=O)N([C@@H](C)CO)C[C@@H](C)[C@@H](CN(C)S(=O)(=O)c1c(C)noc1C)O2 | inactive
7 | COCC#Cc1ccc([C@H]2[C@H]3CN(C(=O)C4CCOCC4)CC(=O)N3[C@H]2CO)cc1 | inactive
8 | C[C@@H]1CN([C@H](C)CO)C(=O)c2cccc(NS(=O)(=O)c3ccccc3)c2O[C@@H]1CN(C)Cc1ccncc1 | inactive
9 | COc1ccc(S(=O)(=O)Nc2ccc3c(c2)C(=O)N([C@@H](C)CO)C[C@@H](C)[C@@H](CN(C)S(=O)(=O)c2cccs2)O3)cc1 | inactive
10 | Cc1ccc(S(=O)(=O)N(C)C[C@H]2Oc3ccc(NS(=O)(=O)c4cccs4)cc3CC(=O)N([C@H](C)CO)C[C@@H]2C)cc1 | inactive
11 | COc1cccc(NC(=O)N(C)C[C@H]2Oc3cc(C#CC4(O)CCCC4)ccc3S(=O)(=O)N([C@H](C)CO)C[C@H]2C)c1 | active
